Measurements: PubChem BioAssay AID504333 (National Center for Advancing Translational Sciences (NCATS), 2011)
Hit rate of the full screen: of about 360,000 compounds, about 16,000 (4.4%) were called active. This list was built around the results that the source calls inconclusive (neither active nor inactive); the mix of calls is not that of the screen. Calls follow the shape of the dose curve; as a rule, active = well fitted inhibition curve with a large enough effect; inconclusive = small, poorly fitted or top-dose-only effect; inactive = no such curve, though single readings can be large or run the other way. Potencies of inconclusive entries are doubtful fits and often do not repeat. More than one record can exist for a structure, and the calls need not agree.
% is scaled to controls: 0 for no effect and ±100 for the full control effect; potency is read from the fitted curve at half-maximal effect; tags tell the direction and shape of the fitted curve.
Also: nearly all actives have a fitted effect of over 60% in size.

What follows are compounds tested against Bromodomain adjacent to zinc finger domain protein 2B (Homo sapiens) (UniProt Q9UIF8) (assay: qHTS Assay for Inhibitors of BAZ2B). Details: AlphaScreen BAZ2B-H3K14Ac peptide displacement; activity change, negative = inhibition: at 114 µM (top of the series).
UniProt Q9UIF8, sequence (Q9UIF8 whole entry, looked up, the tested form may be a part): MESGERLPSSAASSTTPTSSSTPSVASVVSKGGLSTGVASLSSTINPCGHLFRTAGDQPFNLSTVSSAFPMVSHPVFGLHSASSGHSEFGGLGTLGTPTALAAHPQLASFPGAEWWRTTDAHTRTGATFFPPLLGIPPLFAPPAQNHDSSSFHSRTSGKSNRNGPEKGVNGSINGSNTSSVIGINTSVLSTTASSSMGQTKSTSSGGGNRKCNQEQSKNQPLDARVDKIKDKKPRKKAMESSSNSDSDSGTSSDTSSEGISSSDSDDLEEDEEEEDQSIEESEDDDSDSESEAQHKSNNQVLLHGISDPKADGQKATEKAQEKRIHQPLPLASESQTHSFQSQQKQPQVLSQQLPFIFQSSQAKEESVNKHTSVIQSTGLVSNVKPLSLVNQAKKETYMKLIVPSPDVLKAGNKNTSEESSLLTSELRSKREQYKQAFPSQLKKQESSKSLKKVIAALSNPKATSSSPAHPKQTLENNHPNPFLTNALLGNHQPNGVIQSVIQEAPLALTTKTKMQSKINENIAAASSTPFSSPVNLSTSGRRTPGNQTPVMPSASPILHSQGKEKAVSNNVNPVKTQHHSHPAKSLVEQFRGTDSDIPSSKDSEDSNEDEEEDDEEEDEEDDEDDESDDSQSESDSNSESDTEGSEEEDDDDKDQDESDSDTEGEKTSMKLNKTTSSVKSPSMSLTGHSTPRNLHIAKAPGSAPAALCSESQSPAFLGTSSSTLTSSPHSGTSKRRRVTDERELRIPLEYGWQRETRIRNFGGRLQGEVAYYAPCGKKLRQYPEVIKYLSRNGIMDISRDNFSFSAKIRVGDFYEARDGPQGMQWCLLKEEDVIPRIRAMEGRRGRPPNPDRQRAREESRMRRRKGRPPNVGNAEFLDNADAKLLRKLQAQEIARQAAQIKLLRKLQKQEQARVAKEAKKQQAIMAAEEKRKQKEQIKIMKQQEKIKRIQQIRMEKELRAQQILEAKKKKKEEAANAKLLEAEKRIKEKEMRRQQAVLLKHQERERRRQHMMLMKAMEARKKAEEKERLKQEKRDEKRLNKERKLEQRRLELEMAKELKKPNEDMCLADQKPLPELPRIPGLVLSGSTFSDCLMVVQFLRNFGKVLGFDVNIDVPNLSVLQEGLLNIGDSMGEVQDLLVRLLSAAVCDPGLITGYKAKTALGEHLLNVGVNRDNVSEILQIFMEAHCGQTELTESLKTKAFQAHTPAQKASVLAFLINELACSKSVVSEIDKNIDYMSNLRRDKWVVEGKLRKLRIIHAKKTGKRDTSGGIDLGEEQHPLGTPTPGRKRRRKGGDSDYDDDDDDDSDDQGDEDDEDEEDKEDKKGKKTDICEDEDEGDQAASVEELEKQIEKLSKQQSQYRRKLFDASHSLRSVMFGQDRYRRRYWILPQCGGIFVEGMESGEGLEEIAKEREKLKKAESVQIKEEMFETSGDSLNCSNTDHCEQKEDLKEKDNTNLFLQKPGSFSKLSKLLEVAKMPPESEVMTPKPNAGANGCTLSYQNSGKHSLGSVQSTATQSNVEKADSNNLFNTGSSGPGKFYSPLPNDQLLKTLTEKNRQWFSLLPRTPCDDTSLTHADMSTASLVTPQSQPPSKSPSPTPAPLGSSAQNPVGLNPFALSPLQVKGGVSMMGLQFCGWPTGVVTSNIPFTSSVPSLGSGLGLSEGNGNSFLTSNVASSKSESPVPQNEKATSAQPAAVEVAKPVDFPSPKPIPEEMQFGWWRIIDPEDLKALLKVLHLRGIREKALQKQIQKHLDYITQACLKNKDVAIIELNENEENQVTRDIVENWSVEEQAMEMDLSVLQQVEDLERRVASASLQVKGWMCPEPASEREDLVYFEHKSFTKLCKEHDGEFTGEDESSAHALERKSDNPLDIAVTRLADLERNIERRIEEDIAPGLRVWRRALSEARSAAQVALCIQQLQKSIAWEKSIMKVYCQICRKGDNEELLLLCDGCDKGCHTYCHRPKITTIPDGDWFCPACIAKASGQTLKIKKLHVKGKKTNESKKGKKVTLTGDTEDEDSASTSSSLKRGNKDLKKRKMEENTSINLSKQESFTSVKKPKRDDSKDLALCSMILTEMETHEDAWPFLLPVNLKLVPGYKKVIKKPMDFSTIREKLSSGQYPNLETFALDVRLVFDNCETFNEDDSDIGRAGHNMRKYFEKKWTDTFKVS
Method in brief: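 BAZ2B (50 nM) with biotin-H3(5-23)K14Ac peptide (50 nM) in PBS pH 7.4, 0.01% Tween-20, preformed 30 min, then compound 30 min at room temperature; top concentration 110uM. AlphaScreen streptavidin donor/nickel chelate acceptor beads (10 ug/mL final), 20 min dark, signal read.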
In the case of `CCOC(=O)c1[nH]c(Cc2[nH]c(C(=O)OCC)c(C)c2CCC(=O)OC)c(CCC(=O)OC)c1C`, the Potency is reported as inconclusive: 28.2 µM [inhibitor, full curve].
In the case of `CC1CCCC(C)N1C(=O)CSc1nnc(NC(=O)Cc2cccs2)s1` (centres undefined), the Potency is reported as inconclusive: 89.1 µM [inhibitor, single point].
With `CCCN(CCC)CC(O)CN(c1ccccc1)S(=O)(=O)c1ccc(C)cc1` (centres undefined) the Potency was inconclusive: 89.1 µM [inhibitor, single point].
`Nc1nn(-c2ccccc2)c(N)c1N=Nc1ccc2c(c1)OCO2` was tested, and the Potency was active: 31.6 µM.
For `Cc1cc2ccccn2c1C(=O)c1ccncc1`, the “activity change, negative = inhibition” value was inactive: 4.59%.
With `COc1ccc(-c2cc(NC(=O)c3cncn3-c3ccccc3)ccc2OC)cc1` the Potency was inconclusive: 39.8 µM [inhibitor, partial curve].
In the case of `COCCN(C(=O)COC(=O)C1(c2ccccc2)CC1)c1c(N)n(CC(C)C)c(=O)[nH]c1=O`, the “activity change, negative = inhibition” value is reported as inactive: 4.84%.
For `COc1ccc(-c2c(C)nn3c(N4CCCCCC4)cc(C)nc23)cc1OC`, the Potency was inconclusive: 44.7 µM [inhibitor, partial curve].
`Cc1ccc(C(=O)N2CCn3c4c(c5cc(C)ccc53)CCCC42)cc1` (centres undefined) was tested, and the Potency was active: 14.1 µM.
`COc1ccc(CCNC(=O)c2ccc3c(c2)N(Cc2ccccc2)CCS3)cc1OC` was tested, and the Potency was inconclusive: 20 µM [inhibitor, full curve].
In the case of `CC1(C)CC(=O)/C(=N/Nc2ccc(Cl)cc2)CO1`, the Potency is reported as inconclusive: 39.8 µM [inhibitor, partial curve].
`COc1ccc(CCN(C)C/C=C/c2ccccc2)cc1OC` was tested, and the Potency was inconclusive: 89.1 µM [inhibitor, single point].
With `COc1ccccc1Nc1nc(N)nc(CN(C)C2CCCCC2)n1` the Potency was active: 10 µM.
In the case of `CCOc1ccc(NCc2cccn2-c2nnc(N3CCC(C(=O)NCCCN4CC(C)CC(C)C4)CC3)s2)cc1` (centres undefined), the Potency is reported as inconclusive: 15.8 µM [inhibitor, partial curve].
For `O=[N+]([O-])c1ccc(NCCCNS(=O)(=O)c2ccccc2)cc1`, the Potency was inconclusive: 79.4 µM [inhibitor, partial curve].
For `Cc1cnc(C(=O)N2CCc3c([nH]c4ccccc34)C2c2ccc(F)cc2)cn1` (centres undefined), the Potency was active: 28.2 µM.
For `CCOC(=O)N1CCC(N2C(=O)c3ccc(C(=O)Nc4cccc(OC)c4)cc3C2=O)CC1`, the “activity change, negative = inhibition” value was inactive: -19.2%.
For `COc1ccccc1-c1nnc(NC(=O)CSc2nncn2C)s1`, the Potency was inconclusive: 79.4 µM [inhibitor, partial curve].
In the case of `COc1ccccc1N1CCN(C(CNC(=O)C(=O)NCc2cccnc2)c2cccnc2)CC1` (centres undefined), the Potency is reported as inconclusive: 79.4 µM [inhibitor, single point].
In the case of `CCN(CC)CCCNC(=O)CCC(=O)NNc1nc2ccccc2c2nc(C)nn12`, the Potency is reported as inconclusive: 39.8 µM [inhibitor, full curve].
`O=C(NC(=S)Nc1nc2c(s1)CSc1ccccc1-2)c1ccccc1` was tested, and the Potency was inconclusive: 28.2 µM [inhibitor, full curve].
`COc1ccc(-n2cnc3c(sc4nccc(N(C)C)c43)c2=O)cc1` was tested, and the Potency was inconclusive: 100 µM [inhibitor, single point].
`O=C(COc1ccc(Cl)cc1)Nc1nnc(S(=O)(=O)N2CCCCCC2)s1` was tested, and the Potency was active: 1.78 µM.
With `CCCCc1nnc(NC(=O)c2cccc(S(=O)(=O)N3CCN(C)CC3)c2)s1` the “activity change, negative = inhibition” value was inactive: -31%.
With `COc1cc(-c2ccc3sc(-c4ccsc4)c(C#CCO)c3c2)cc(OC)c1OC` the Potency was inconclusive: 89.1 µM [inhibitor, single point].
For `CCOc1cccc(CC(=O)N2CCc3c([nH]c4ccc(OC)cc34)C2c2ccc(F)cc2)c1OCC` (centres undefined), the Potency was inconclusive: 10 µM [inhibitor, full curve, poor fit].
With `COc1ccc(C2NC(=S)NC(C)=C2C(=O)c2ccccc2)cc1OC` (centres undefined) the “activity change, negative = inhibition” value was inactive: -8.88%.
For `Cc1ccccc1CNC(=O)CSc1nnc(C)c2c(C)n(-c3ccccc3)nc12`, the “activity change, negative = inhibition” value was inactive: -3.05%.
`COc1cccc(-c2noc(CCC(=O)NCCc3ccccc3)n2)c1` was tested, and the “activity change, negative = inhibition” value was inactive: 13.6%.
In the case of `COc1ccc(OC)c(C2/C(=C(/O)c3cnn(-c4ccccc4)c3C)C(=O)C(=O)N2CCN(C)C)c1` (centres undefined), the Potency is reported as active: 50.1 µM.
For `O=C(Cc1cccs1)Nc1nc(-c2ccccc2)cs1`, the “activity change, negative = inhibition” value was inactive: -1.86%.
For `COc1cc(C2C(C#N)=C(N)Oc3c2ccc2ccccc32)ccc1OCC(=O)Nc1cccc(C)c1` (centres undefined), the Potency was inconclusive: 44.7 µM [inhibitor, partial curve].
With `COc1cc(NC(=O)CSc2nc3ccccc3n2-c2ccccc2)c(C)cc1[N+](=O)[O-]` the Potency was inconclusive: 8.91 µM [inhibitor, partial curve, poor fit].
For `Cc1ccc2nc(-c3ccc(F)cc3)c(NC(C)(C)CC(C)(C)C)n2c1`, the Potency was inconclusive: 7.94 µM [inhibitor, full curve].
For `CC(=O)NNC(=O)CSc1nnc(-c2ccccc2)c(-c2ccccc2)n1`, the Potency was inconclusive: 50.1 µM [inhibitor, partial curve].
For `CC(=O)Oc1ccc(/C=c2\sc3ncnn3c2=O)cc1`, the Potency was inconclusive: 79.4 µM [inhibitor, single point].
In the case of `Cc1c(NS(=O)(=O)c2cccc(C(=O)NCc3ccc(Cl)cc3)c2)c(=O)n(-c2ccccc2)n1C`, the “activity change, negative = inhibition” value is reported as inactive: 1.36%.
In the case of `Cc1c(Cl)cccc1NC(=O)CSc1ccc(-c2ccccn2)nn1`, the “activity change, negative = inhibition” value is reported as inactive: 5.18%.
In the case of `COc1cc(C2SCCS2)cc(Br)c1Oc1ncccc1[N+](=O)[O-]`, the Potency is reported as inconclusive: 22.4 µM [inhibitor, full curve, poor fit].
`Cc1ccc2nsnc2c1NC(=O)c1ccc(-c2cc(Cl)ccc2Cl)o1` was tested, and the Potency was inconclusive: 89.1 µM [inhibitor, single point].
In the case of `Cc1ccc(C(=O)N2CCn3c(C)ccc3C2C)cc1` (centres undefined), the Potency is reported as inconclusive: 44.7 µM [inhibitor, partial curve].
In the case of `Cc1[nH]n(-c2ccccc2)c(=O)c1N=Nc1ccccc1C(=O)N1CCOCC1`, the Potency is reported as inconclusive: 28.2 µM [inhibitor, full curve, poor fit].
In the case of `COc1ccc(-c2csc(NC(=O)c3cccc(S(=O)(=O)N4CCN(C)CC4)c3)n2)cc1`, the Potency is reported as inconclusive: 31.6 µM [inhibitor, partial curve].
`CCOC(=O)CSC1=NC(=O)CS1` was tested, and the Potency was inconclusive: 89.1 µM [inhibitor, single point].
With `O=C(Nc1ccc2nc(-c3ccco3)[nH]c2c1)c1ccco1` the Potency was inconclusive: 11.2 µM [inhibitor, partial curve, poor fit].
With `CCN(C(=O)Cn1c(=O)oc2cc(S(=O)(=O)N3CCCCC3)ccc21)c1ccccc1` the “activity change, negative = inhibition” value was inactive: 2.23%.
`CCN1CCN(c2ccc(NC(=O)CCc3c(C)nc4c(-c5ccc(F)cc5)c(C)nn4c3C)cc2)CC1` was tested, and the Potency was inconclusive: 100 µM [inhibitor, single point].
With `C(=N\N(c1ccccc1)c1ccccc1)/c1ccc(N2CCOCC2)s1` the Potency was inconclusive: 11.2 µM [inhibitor, full curve, poor fit].
For `COc1ccc(N2CCN(C(=O)CN(c3ccccc3)S(=O)(=O)c3ccc(OC)cc3)CC2)cc1`, the Potency was inconclusive: 44.7 µM [inhibitor, partial curve].
With `Cc1c(C(=O)N2CCN(c3ccccc3F)CC2)sc2nc(-c3ccccc3)cn12` the Potency was inconclusive: 44.7 µM [inhibitor, partial curve].
For `O=c1c2ccccc2cnn1Cc1ccc(Cl)c(Cl)c1`, the “activity change, negative = inhibition” value was inactive: 65.9%.
In the case of `Cc1ccc(Cl)cc1N1CCN(S(=O)(=O)c2c(C)[nH]c(C)c2C(=O)N2CCCC2)CC1`, the Potency is reported as inconclusive: 79.4 µM [inhibitor, partial curve].
In the case of `Cc1csc(SCC(=O)Nc2cc(S(=O)(=O)N3CCOCC3)ccc2N2CCOCC2)n1`, the “activity change, negative = inhibition” value is reported as inactive: 2.59%.
For `COc1cc(NC(=S)NCCCN2CCOCC2)cc(OC)c1OC`, the “activity change, negative = inhibition” value was inactive: -8.38%.
With `Clc1ccc(OCc2cn3cccnc3n2)c2ncccc12` the “activity change, negative = inhibition” value was inactive: -5.04%.
For `CN1CCN(/N=C/c2c3ccccc3c(Cl)c3ccccc23)CC1`, the Potency was active: 20 µM.
`CCc1ccccc1NS(=O)(=O)c1ccc2c(c1)CCCN2C(=O)C1CCC1` was tested, and the “activity change, negative = inhibition” value was inactive: -18.7%.
In the case of `COc1ccc(S(=O)(=O)N2CCN(Cc3ccccc3)CC2)c(C)c1`, the Potency is reported as inconclusive: 89.1 µM [inhibitor, single point].
For `COCc1nnc(NC(=O)c2ccc(OC)cc2OC)s1`, the “activity change, negative = inhibition” value was inactive: -14.6%.
With `Fc1ccc(-n2c(-c3cc(C4CC4)[nH]n3)n[nH]c2=S)cc1Cl` the Potency was inconclusive: 89.1 µM [inhibitor, single point].
`COc1cccc(NC(=O)C2CCN(S(=O)(=O)c3c(C)noc3C)CC2)c1` was tested, and the “activity change, negative = inhibition” value was inactive: -9.04%.
`CCCCc1ccc(-c2nc(NC(=O)C3C4CCC(O4)C3C(=O)O)sc2C)cc1` (centres undefined) was tested, and the Potency was inconclusive: 79.4 µM [inhibitor, single point].
In the case of `Cc1ccc(S(=O)(=O)c2cn(CC(=O)Nc3ccc(F)cc3)c3cc4c(cc3c2=O)OCO4)cc1`, the “activity change, negative = inhibition” value is reported as inactive: 1.27%.
In the case of `CCOc1ccc(-c2cccc(NS(=O)(=O)c3cc([N+](=O)[O-])ccc3Cl)c2)nn1`, the Potency is reported as inconclusive: 70.8 µM [inhibitor, single point].
`CC1=NN(c2ccccc2)C(=O)/C1=C/c1c(O)n(-c2ccc(F)c(Cl)c2)[nH]c1=O` was tested, and the Potency was active: 35.5 µM.
For `COC(=O)C(Cc1c[nH]c2ccccc12)NC(=O)c1cncc(Br)c1` (centres undefined), the Potency was inconclusive: 79.4 µM [inhibitor, single point].
For `COCCCn1[nH]c2c3c(ccc2c1=O)C(=O)c1ccccc1C3=O`, the Potency was inconclusive: 89.1 µM [inhibitor, single point].
With `CCOC(=O)CC(NC(=O)c1cc2c(=O)n3cccc(C)c3nc2s1)c1ccc(OCC)c(OC)c1` (centres undefined) the “activity change, negative = inhibition” value was inactive: 51.9%.
In the case of `Cn1c(=O)c2c(nc(CN3CCN(C(=O)c4ccco4)CC3)n2Cc2ccc(Cl)cc2)n(C)c1=O`, the Potency is reported as inconclusive: 89.1 µM [inhibitor, single point].
